Measured values taken from a compilation of properties of binary mixtures (doi:10.1016/j.molliq.2012.09.002).
The densities may have been worked out from excess volumes.

Experiment: xn = mol fraction of the nth substance listed
Settings: 101 kPa

CN(CCO)CCO + CCCCCC[n+]1ccn(C)c1.F[B-](F)(F)F
x1 = 1
Settings | mass density [kg/m3]
318.15 K | 1022.8
323.15 K | 1019

CCCCCC[n+]1ccn(C)c1.F[B-](F)(F)F + CN(CCO)CCO
mass density [kg/m3]
Settings | x2 = 0 | x2 = 0.097 | x2 = 0.192 | x2 = 0.2909 | x2 = 0.3916 | x2 = 0.4949 | x2 = 0.5936 | x2 = 0.6935 | x2 = 0.7928 | x2 = 0.8824
303.15 K | 1140.8 | 1133.5 | 1126.6 | 1118.9 | – | – | 1092.2 | 1081.1 | – | 1054.9
308.15 K | 1137.4 | 1129.9 | 1122.9 | 1115.3 | 1107.2 | 1098.2 | 1088.4 | 1077.3 | 1064.5 | 1051.2
313.15 K | 1134 | 1126.4 | 1119.3 | 1111.6 | 1103.5 | 1094.4 | – | 1073.4 | 1060.7 | –
318.15 K | 1130.5 | 1122.9 | 1115.7 | 1107.9 | 1099.8 | – | 1080.8 | 1069.5 | 1056.7 | 1043.5
323.15 K | 1127.1 | 1119.3 | 1111.9 | 1104.1 | 1096 | 1086.8 | 1076.8 | 1065.5 | 1052.6 | 1039.4
